Measurements reported in the supplement of paper PMC4967469.
By IC50 is meant the dose at which the fit gives 50% viability; where the fit passes the top or lowest dose, that dose stands as a limit. AUC, from the same fit, is the share of area under the viability curve across the 256-fold dose range; values near 1 show little effect. For part of these data: Where the top dose is marked as inferred, it was derived from the fitted curves, not read from the paper.

Legend:
Assay in all cases: Viability of human cancer cell lines after 72 h of drug (GDSC screen)
HG-6-64-1 = compound: CCN1CCN(Cc2ccc(NC(=O)c3ccc(C)c(/C=C/c4cnc5[nH]ccc5c4OC)c3)cc2C(F)(F)F)CC1 [HG-6-64-1]; conditions: top dose 5.12 µM; top dose inferred
Procedure: (§1)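 Human cancer cell lines in 384-well plates, medium with 10% serum, drug for 72 h over a 256-fold dose range (nine 2-fold or five 4-fold steps up to the top dose). Adherent lines were fixed and stained with the nucleic acid dye Syto60, suspension lines read with resazurin; signal relative to control wells, capped at 0 and 100%. One two-parameter sigmoid per drug and line, fitted in a mixed model over all curves with the slope shared within a line.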

KIN001-244 = compound: O=C(NC(COc1ccc2[nH]c(=O)[nH]c2c1)c1ccccc1)c1cccn(Cc2ccc(F)c(F)c2)c1=O [KIN001-244]; conditions: top dose 20 µM; top dose inferred
Procedure: as §1

Trametinib = compound: CC(=O)Nc1cccc(-n2c(=O)n(C3CC3)c(=O)c3c(Nc4ccc(I)cc4F)n(C)c(=O)c(C)c32)c1 [Trametinib]; conditions: top dose 1 µM
Procedure: as §1

AV-951 = compound: COc1cc2nccc(Oc3ccc(NC(=O)Nc4cc(C)on4)c(Cl)c3)c2cc1OC [AV-951]; conditions: top dose 0.128 µM; top dose inferred
Procedure: as §1

I-BET-762 = compound: CCNC(=O)C[C@@H]1N=C(c2ccc(Cl)cc2)c2cc(OC)ccc2-n2c(C)nnc21 [I-BET-762]; conditions: top dose 20 µM; top dose inferred
Procedure: as §1

PF-4708671 = compound: CCc1cncnc1N1CCN(Cc2nc3ccc(C(F)(F)F)cc3[nH]2)CC1 [PF-4708671]; conditions: top dose 10 µM; top dose inferred
Procedure: as §1

Row | Cell Line | AUC (HG-6-64-1) | IC50 (HG-6-64-1) | AUC (KIN001-244) | IC50 (KIN001-244) | AUC (Trametinib) | IC50 (Trametinib) | AUC (AV-951) | IC50 (AV-951) | AUC (I-BET-762) | IC50 (I-BET-762) | AUC (PF-4708671) | IC50 (PF-4708671)
1 | SCC-4 (head and neck, adherent) | 0.83 | 4080 nM | 0.936 | > 20000 nM | 0.778 | 482 nM | 0.984 | > 128 nM | 0.966 | > 20000 nM | 0.899 | > 10000 nM
2 | SCC-9 (head and neck, adherent) | 0.674 | 1130 nM | 0.81 | 14300 nM | 0.415 | 34.3 nM | 0.969 | > 128 nM | 0.933 | > 20000 nM | 0.937 | > 10000 nM
3 | SCC-15 (head and neck, adherent) | 0.829 | 4810 nM | 0.856 | > 20000 nM | 0.373 | 24.7 nM | 0.98 | > 128 nM | 0.937 | > 20000 nM | 0.969 | > 10000 nM
4 | SCC-25 (head and neck, adherent) | 0.731 | 1610 nM | 0.785 | 9820 nM | 0.394 | 30.8 nM | 0.982 | > 128 nM | 0.942 | > 20000 nM | 0.98 | > 10000 nM
5 | SF295 (glioma, adherent) | 0.751 | 1810 nM | 0.882 | > 20000 nM | 0.724 | 287 nM | 0.978 | > 128 nM | 0.95 | > 20000 nM | 0.913 | > 10000 nM
6 | SJRH30 (rhabdomyosarcoma, adherent) | 0.8 | 2570 nM | 0.981 | > 20000 nM | 0.921 | > 1000 nM | 0.98 | > 128 nM | 0.925 | > 20000 nM | 0.966 | > 10000 nM
7 | SK-CO-1 (large intestine, adherent) | 0.836 | 3130 nM | 0.936 | > 20000 nM | 0.114 | 3.93 nM | 0.988 | > 128 nM | 0.96 | > 20000 nM | 0.97 | > 10000 nM
8 | SK-HEP-1 (liver, adherent) | 0.513 | 346 nM | 0.897 | > 20000 nM | 0.578 | 101 nM | 0.989 | > 128 nM | 0.983 | > 20000 nM | 0.975 | > 10000 nM
9 | SK-LU-1 (lung adenocarcinoma, adherent) | 0.61 | 697 nM | 0.901 | > 20000 nM | 0.61 | 136 nM | 0.98 | > 128 nM | 0.951 | > 20000 nM | 0.968 | > 10000 nM
10 | SK-MEL-3 (melanoma, adherent) | 0.771 | 2270 nM | 0.757 | 7910 nM | 0.333 | 19.7 nM | 0.976 | > 128 nM | 0.782 | 9820 nM | 0.984 | > 10000 nM
11 | SK-MEL-28 (melanoma, adherent) | 0.958 | > 5120 nM | 0.853 | 15100 nM | 0.112 | < 3.91 nM | 0.987 | > 128 nM | 0.988 | > 20000 nM | 0.983 | > 10000 nM
12 | SK-MEL-30 (melanoma, adherent) | 0.777 | 2170 nM | 0.889 | > 20000 nM | 0.098 | < 3.91 nM | 0.981 | > 128 nM | 0.864 | 19200 nM | 0.982 | > 10000 nM
13 | SK-MES-1 (lung squamous cell carcinoma, adherent) | 0.656 | 903 nM | 0.914 | > 20000 nM | 0.428 | 39.1 nM | 0.982 | > 128 nM | 0.94 | > 20000 nM | 0.959 | > 10000 nM
14 | SK-N-AS (neuroblastoma, adherent) | 0.983 | > 5120 nM | 0.929 | > 20000 nM | 0.364 | 24.7 nM | 0.982 | > 128 nM | 0.724 | 6060 nM | 0.954 | > 10000 nM
15 | SK-N-SH (neuroblastoma, adherent) | 0.476 | 275 nM | 0.853 | 15400 nM | 0.768 | 372 nM | 0.987 | > 128 nM | 0.922 | > 20000 nM | 0.942 | > 10000 nM
16 | SKG-IIIa (cervix, adherent) | 0.897 | > 5120 nM | 0.981 | > 20000 nM | 0.901 | > 1000 nM | 0.983 | > 128 nM | 0.983 | > 20000 nM | 0.957 | > 10000 nM
17 | SKN (uterus, adherent) | 0.79 | 2830 nM | 0.811 | 13500 nM | 0.679 | 222 nM | 0.958 | > 128 nM | 0.826 | 15700 nM | 0.944 | > 10000 nM
18 | SKN-3 (head and neck, adherent) | 0.968 | > 5120 nM | 0.893 | > 20000 nM | 0.692 | 240 nM | 0.981 | > 128 nM | 0.972 | > 20000 nM | 0.978 | > 10000 nM
19 | SN12C (kidney, adherent) | 0.783 | 2440 nM | 0.977 | > 20000 nM | 0.622 | 142 nM | 0.986 | > 128 nM | 0.974 | > 20000 nM | 0.974 | > 10000 nM
20 | SNG-M (endometrium, adherent) | 0.448 | 232 nM | 0.849 | 14500 nM | 0.419 | 37.8 nM | 0.986 | > 128 nM | 0.969 | > 20000 nM | 0.958 | > 10000 nM
21 | SNU-182 (liver, adherent) | 0.772 | 2060 nM | 0.848 | 15900 nM | 0.648 | 164 nM | 0.985 | > 128 nM | 0.828 | 13100 nM | 0.986 | > 10000 nM
22 | SNU-387 (liver, adherent) | 0.663 | 973 nM | 0.667 | 3900 nM | 0.623 | 143 nM | 0.984 | > 128 nM | 0.783 | 9720 nM | 0.984 | > 10000 nM
